Some of the results follow.
These sequences were tested on T1, Caupolican (Caup) homeodomain DNA-binding domain (assay: PBM E-score (8-mer, recovered from the published 9-mer minima) (E-score (dimensionless, -0.5 to 0.5)); Drosophila protein; higher = stronger relative binding preference, active = 0.31 or more).
T1 sequence: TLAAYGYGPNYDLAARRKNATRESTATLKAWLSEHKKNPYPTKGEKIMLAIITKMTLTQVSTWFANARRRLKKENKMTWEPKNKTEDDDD
In short: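 Caup's homeodomain DNA-binding domain (residues 214-303) was made by in vitro transcription and translation and applied at 100 nM to custom-designed protein binding microarrays. Each value is an enrichment score that gives relative binding preference for a short DNA word, with higher meaning stronger. The 8-mer values were recovered from published 9-mer scores, each of which was the minimum of its two constituent 8-mer scores. A cutoff of 0.31 marks candidate sites.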

Sequence	PBM E-score
ATTAGCTC	inactive: 0.0259
CCGCACCG	inactive: -0.0712
ACCTCAGC	inactive: -0.0755
ATCTAGCC	inactive: -0.13
ACATTGAA	inactive: 0.259
CAGACTCG	inactive: -0.0201
ACACGCTC	inactive: 0.248
GGGGCGCA	inactive: -0.201
AAGGAATG	inactive: 0.0264
ATCTTCAA	inactive: 0.0619
AATATGAG	inactive: 0.0796
GACGAATA	inactive: 0.0347
CGTACAGA	inactive: 0.142
ATGGAAAT	inactive: 0.126
GGGATACA	inactive: 0.229
GGCAGCGA	inactive: -0.241
ACCGAGGC	inactive: -0.133
GGTCTCGA	inactive: -0.0505
GACGGTCA	inactive: -0.173
CTCCGGAC	inactive: -0.0485
AACGCGCG	inactive: -0.0517
CCACACAC	inactive: 0.0259
AGAAATCA	inactive: -0.00877
CCCCTAGA	inactive: -0.0794

Sequence	PBM E-score
CTTGCTTC	inactive: 0.0842
AGTTCATA	inactive: 0.0856
GTCACAAC	inactive: 0.168
GCGAGGAC	inactive: -0.194
CGACGGAA	inactive: 0.00015
GCGCCTGA	inactive: -0.119
CACTGGAC	inactive: -0.00881
ATAGGGAT	≥ 0.0224
AAGCACCG	inactive: -0.0685
ACTACTTA	inactive: 0.0929
TCCCGGGA	inactive: -0.153
CTCTGGAA	inactive: -0.12
CCTCGGCA	inactive: -0.116
ACAACAAA	active: 0.323
AAACCGCG	≥ 0.0459
CGAGCAAA	inactive: 0.0137
CCGAGATA	inactive: -0.0259
CAGACGAA	inactive: 0.105
CGCTTCGA	inactive: -0.147
GGCCAGAA	inactive: -0.0915
CAGCTACG	inactive: -0.101
GTCATTAA	inactive: 0.205
GACAGATA	≥ 0.201
AAATGAAC	inactive: 0.166

Sequence	PBM E-score
CGCGGTCC	inactive: -0.269
CATGCTTC	inactive: 0.0983
GATCGCAA	inactive: 0.0769
GGCAGTTA	inactive: -0.0401
CAACGGCA	inactive: -0.0152
CCCGCAGC	inactive: -0.271
CTATCTGC	inactive: -0.0723
GGGAAATA	inactive: 0.0591
GCCACGTA	inactive: -0.0264
ACTTAGTG	inactive: 0.0348
AGGCCATA	inactive: -0.0649
ATCGATAC	inactive: 0.228
AGGATAAC	inactive: 0.0584
CCATCGAC	inactive: -0.149
ATGGTAAC	inactive: 0.227
TAGAAAAA	inactive: 0.0409
GAACGTCC	inactive: 0.00472
AACTATGA	inactive: 0.0863
AGCCACGA	inactive: -0.0999
CACCTGGG	inactive: -0.155
AGTGATGG	inactive: 0.0548
AGTTTACG	inactive: 0.0155
AGTCTTAT	inactive: 0.0971
GTTGGTTA	inactive: 0.163

Sequence	PBM E-score
CCTAGCAG	inactive: -0.124
CTACGCAA	inactive: -0.0565
GAGCATCC	inactive: -0.0998
CGCAATAC	inactive: 0.0451
GTGTGGTA	inactive: 0.0835
GTGCTCGA	inactive: -0.0316
AAACGCAA	inactive: 0.00551
AGTGCAAC	inactive: 0.0396
AACCAGAC	≥ 0.173
CCATCTGC	inactive: -0.0543
GCCAAATA	inactive: -0.00793
GCCGATCC	inactive: -0.152
GTGGTGCA	inactive: -0.0503
CCCCATCG	inactive: -0.203
ATACGGCC	inactive: -0.0828
CGGACATA	inactive: 0.223
CGACTCCA	inactive: -0.0558
GGTCGATA	inactive: -0.0421
GAGATGAC	inactive: 0.0225
TATTAGCA	≥ 0.172
GTCACCGA	inactive: 0.0281
GGATAGTA	≥ 0.172
CTGATTAC	inactive: 0.231
ACATGCAC	active: 0.393

Sequence	PBM E-score
GACAGCCC	inactive: -0.0688
CCGTAGGC	inactive: -0.231
CTAGGGAA	inactive: -0.0555
CTATTGGA	inactive: 0.00708
CTCGACAC	inactive: 0.105
AAGTCGGG	inactive: -0.103
CCCAGTGA	inactive: -0.0998
GACTTTGA	inactive: -0.0255
ATAATATC	inactive: 0.231
CGTTGGTA	inactive: 0.202
ACCGCCCG	inactive: -0.323
CACATGTA	active: 0.42
CCCAGTTA	inactive: -0.134
AGTCTCAT	inactive: -0.00161
CTGTATTA	inactive: 0.159
GCGCAACC	inactive: -0.145
CGCAACAC	inactive: 0.0463
ATCTAAAG	inactive: 0.0121
CTTAGGCC	inactive: -0.241
CCGTTCAG	inactive: -0.0977
AGTTGCCG	inactive: -0.0224
CCTTTTCG	inactive: -0.0928
ACGTCTAA	inactive: 0.002
CGCTAGCC	inactive: -0.283

Sequence	PBM E-score
CTCCTCAA	inactive: -0.164
CCGATATA	inactive: 0.0359
GTTCCCAA	inactive: -0.045
CTCCCCAA	inactive: -0.0757
AATTATTA	inactive: 0.214
GGTCTAGA	inactive: -0.134
CATTACGG	inactive: 0.00577
GCGCATAC	inactive: 0.0093
CACGGTAA	inactive: 0.0544
GGAACCAA	inactive: 0.0388
GATCCCCC	inactive: -0.182
AAGAGTGG	inactive: -0.0354
GGATACTA	inactive: 0.0428
GAACGTTA	inactive: -0.0679
ACACAGGC	inactive: 0.0845
GATGATGC	inactive: -0.061
GTGCCATA	inactive: -0.0152
GCTAAGCC	inactive: -0.227
CCGCGTAG	inactive: -0.0732
TAACGCAA	inactive: 0.0712
CCGTCCAG	inactive: -0.245
CAGATTAG	inactive: -0.0364
